Source: PubChem BioAssay (NCI)
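Results reflect a 48-hour exposure of cells in 96-well plates to compound at five concentrations. GI50 is the concentration that inhibits growth by half. Definition used: TGI = concentration required for complete inhibition of growth.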

test system: NCI-H322M lung; assay: DTP human tumour cell line panel, 48 h

Going from `Cn1c2c(c3ccc(Cl)c(Cl)c31)C(C#N)C1(CCNCC1)NC2=O` (stereo not drawn) to `COc1cc(-c2cn(-c3ccc(Cl)c(Cl)c3)c(=O)n2C(C)=O)cc(OC)c1OC`, the GI50 rises from 2.7 µM to 16.6 µM (6.1-fold).

Going from `CCOc1cc(/C=N\Nc2nnc(C)n2N)c(C)cc1N(CCCl)CCCl` to `COc1cc2cc(C(=O)N3C[C@H](CCl)c4c3cc(N)c3ccccc43)[nH]c2c(OC)c1OC`, the GI50 falls from 2.77 µM to 0.0122 µM (230-fold).

Going from `O=C(O)C1CCCCC1C(=O)O.[NH-]C1CCC1.[NH2-].[Pt+2]` (stereo not drawn) to `Cc1ccc(-c2csc(NC(=O)CN3CCN(c4cc5c(cc4F)c(=O)c(C(=O)O)cn5C4CC4)CC3)n2)cc1`, the GI50 falls from > 100 µM to 1.93 µM.

First: Cc1nc2sccn2c1-c1csc(Nc2cccc(Cl)c2C)n1
Second: COc1ccc(C2=NN(C=O)C(c3cccc(Nc4ccnc5cc(Cl)ccc45)c3)C2)cc1 (stereo not drawn)
The GI50 of the first is 1.7-fold higher: 11.2 µM for the first, 6.51 µM for the second.

`O=C1NC(=S)S/C1=C(/C=C(\CC(=O)c1ccccc1)c1ccc(Cl)cc1)c1ccccc1` and `COc1cc(S(=O)(=O)Nc2ccc(C(=O)/C=C/c3ccc(O)cc3)cc2)ccc1F` are within 1.5-fold of each other in GI50: 34.6 µM for the first, 51.8 µM for the second.

Compared with `C/C=C1\NC(=O)[C@H]2CSSCCC=C[C@H](CC(=O)N[C@H](C(C)C)C(=O)N2)OC(=O)[C@H](C(C)C)NC1=O`, `COc1ccc2c(c1)/C(=C\c1c(Cl)[nH]c3ccc(OC)cc13)C(=O)N2` is higher in GI50: < 0.01 µM for the first, 34 µM for the second.

`OCCNc1ncnc2c1ncn2Cc1cccc(COc2cccc(OCc3cccc(Cn4cnc5c(NCCO)ncnc54)c3)c2)c1` was tested, and the GI50 was 18.2 µM.

Going from `Cn1c2c(c3ccc(Cl)c(Cl)c31)C(C#N)C1(CCNCC1)NC2=O` (stereo not drawn) to `COc1cc(-c2cn(-c3ccc(Cl)c(Cl)c3)c(=O)n2C(C)=O)cc(OC)c1OC`, the TGI rises from 13.4 µM to 41.3 µM (3.1-fold).

Compared with `Cc1cc(S(=O)(=O)/N=C(/C(=C=[N-])C#N)[n+]2ccc(N(C)C)cc2)c(SCC(=O)O)cc1Cl`, `Cc1cc(S(=O)(=O)Nc2n[nH]c(-c3ccccn3)n2)c(S)cc1Cl` is lower in TGI: > 100 µM for the first, 66.4 µM for the second.

`CCOc1cc(/C=N\Nc2nnc(C)n2N)c(C)cc1N(CCCl)CCCl` and `CCOc1ccc(Nc2nc(N)nc(N)c2N)cc1` cannot be ordered by TGI: > 100 µM for the first, > 100 µM for the second.

`C[C@]12CCCC(=O)C1(O)C[C@H](C(=O)O)CC2` (stereo partly drawn) and `O=C(O)C1CCCCC1C(=O)O.[NH-]C1CCC1.[NH2-].[Pt+2]` (stereo not drawn) cannot be ordered by TGI: > 100 µM for the first, > 100 µM for the second.

`O=P(O)(O)c1ccccc1Oc1ccccc1` and `COc1ccccc1CN=C1Nc2ccncc2S(=O)(=O)N1c1ccccc1` cannot be ordered by TGI: > 100 µM for the first, > 100 µM for the second.

`C/C(CCc1ccccc1)=N\NC(N)=S` and `CC(=O)NC(CCCCNC(=O)NCCCl)C(=O)NCc1ccccc1` (stereo not drawn) cannot be ordered by TGI: > 100 µM for the first, > 100 µM for the second.

`CS(=O)(=O)CSCSSCS(C)(=O)=O` and `CCN(CC)C(=S)SC` cannot be ordered by TGI: > 100 µM for the first, > 100 µM for the second.

First: Cc1nc2sccn2c1-c1csc(Nc2cccc(Cl)c2C)n1
Second: Cc1cc(C)c2c(=O)cc(-c3cccc(F)c3)[nH]c2n1
The TGI of the first is lower: 63.7 µM for the first, > 100 µM for the second.

`CC1(C)OCC2OC3([C@@H]4OC(C)(C)O[C@H]4CO)OC(C)(C)OC3C2O1` (stereo partly drawn) and `COC(=O)[C@]12CCC(C)[C@H](C)[C@H]1C1=CCC3[C@@]4(C)CC[C@H](OC(C)=O)C(C)(C)C4CC[C@@]3(C)C1(C)C(O)C2` (stereo partly drawn) cannot be ordered by TGI: > 100 µM for the first, > 100 µM for the second.

`O=c1cccc(C2CC(CO)C3CCCCN3C2)[nH]1` (stereo not drawn) and `CC1C(=O)OCC2=CCN3CCC(OC(=O)C(C)C1(C)O)C23` (stereo not drawn) cannot be ordered by TGI: > 100 µM for the first, > 100 µM for the second.

`CCOC(=O)c1cc(/C=C/C(C)=C/C(=O)OC)oc1C` and `CCP(=O)(OC)C1=CCN(C(=O)OCC[Si](C)(C)C)CC1` (stereo not drawn) cannot be ordered by TGI: > 100 µM for the first, > 100 µM for the second.

`O=C1NC(=S)S/C1=C(/C=C(\CC(=O)c1ccccc1)c1ccc(Cl)cc1)c1ccccc1` and `COc1ccc(/C=c2\s/c(=C3/SC(=S)N(c4ccccc4)C3=O)n(-c3ccccc3)c2=O)cc1` cannot be ordered by TGI: > 100 µM for the first, > 100 µM for the second.

Compared with `COc1ccccc1C1Nn2c(nc3ccccc3c2=O)N1c1ccc(C)cc1` (stereo not drawn), `COc1ccc(N2C(=O)[C@H]3CC(C)c4c([nH]c5ccccc45)[C@H]3C2=O)cc1` (stereo partly drawn) is 2-fold higher in TGI: 35.2 µM for the first, 70.3 µM for the second.

Compared with `Cc1cc2c(O)c(c1)CN(CC(=O)O)Cc1cc(C)cc(c1O)CN(CC(=O)O)Cc1cc(C)cc(c1O)CN(CC(=O)O)C2`, `Cc1ccc(-c2csc(NC(=O)CN3CCN(c4cc5c(cc4F)c(=O)c(C(=O)O)cn5C4CC4)CC3)n2)cc1` is lower in TGI: > 100 µM for the first, 9.95 µM for the second.

`CN(C)CCCNC(=O)c1cc(NC(=O)c2cc(NC(=O)CCCn3c4ccccc4c4ccccc43)cn2C)cn1C` and `Cc1[nH]c(=O)nc(NCCNCCO)c1C(=O)Nc1cccc2cc3ccccc3cc12` cannot be ordered by TGI: > 56.6 µM for the first, > 100 µM for the second.

`COc1cccc2c1C(=O)c1c(O)c3c(c(O)c1C2=O)C[C@H](O)C[C@@H]3OC1CC(N)C(O)C(C)O1` (stereo partly drawn) and `COc1cc2cc(C(=O)N3C[C@H](CCl)c4c3cc(N)c3ccccc43)[nH]c2c(OC)c1OC` are within 1.5-fold of each other in TGI: 11.7 µM for the first, 11.5 µM for the second.

`O=c1cc(-c2ccncc2)[nH]c2cc3c(cc12)OCO3` and `COc1ccc2c(c1)/C(=C\c1c(Cl)[nH]c3ccc(OC)cc13)C(=O)N2` cannot be ordered by TGI: > 100 µM for the first, > 100 µM for the second.

`COc1ccc(OC2OC(CO)C(OCc3ccccc3)C(OCc3ccccc3)C2OCc2ccccc2)cc1` (stereo not drawn) and `CC(C)(C)OC(=O)NC(Cc1ccccc1)NC(=O)NC(=O)OCc1ccccc1` (stereo not drawn) cannot be ordered by TGI: > 100 µM for the first, > 100 µM for the second.

Going from `Cc1cc(C)c(C(=O)c2no[n+]([O-])c2C(=O)c2c(C)cc(C)c(Br)c2C)c(C)c1Br` to `Cc1cccc(-n2c(=S)[nH]c3c(sc(=O)n3-c3ccccc3C)c2=O)c1`, the TGI rises from 29.7 µM to > 100 µM.

`CCOP(=O)(OCC)OC(C#N)c1ccc(-c2ccccc2)cc1` (stereo not drawn) and `COC(=O)C(CC(=O)Nc1ccc(C)cc1)C(=O)C(=O)Nc1ccccc1C(C)C` (stereo not drawn) cannot be ordered by TGI: > 100 µM for the first, > 100 µM for the second.

Going from `COC1OC(CO)C(O)C1N` (stereo not drawn) to `COC(=O)C1(CCCCCBr)CCCCCCCCCCC1=O` (stereo not drawn), the TGI falls from > 100 µM to 73.5 µM.

`N#CC1(O)CCCCCCCCCCC1` and `Nc1nc(Cl)cc(NCC2(O)CC2)n1` cannot be ordered by TGI: > 100 µM for the first, > 100 µM for the second.

Compared with `N#C/C(=C/n1c(=S)[nH]c2ccc([N+](=O)[O-])cc21)C(N)=O`, `O=[N+]([O-])c1ccc(NC(=S)N=Nc2c(O)[nH]c3ccc([N+](=O)[O-])cc23)cc1` is lower in TGI: > 100 µM for the first, 65.5 µM for the second.

`C[C@]12CCC(=O)[C@@H](CCC3=CC(=O)C=CC3=O)[C@@H]1CCC2=O` and `COc1ccc(C2=NN(C=O)C(c3cccc(Nc4ccnc5cc(Cl)ccc45)c3)C2)cc1` (stereo not drawn) cannot be ordered by TGI: > 100 µM for the first, > 100 µM for the second.

Going from `COc1cc(S(=O)(=O)Nc2ccc(C(=O)/C=C/c3ccc(O)cc3)cc2)ccc1F` to `OCCNc1ncnc2c1ncn2Cc1cccc(COc2cccc(OCc3cccc(Cn4cnc5c(NCCO)ncnc54)c3)c2)c1`, the TGI falls from > 100 µM to 35.8 µM.
